From the supplement of paper PMC4604168 (melanoma cell lines)
This is one part of the list. Many values rest on one well or one pass, so single values are uncertain.

System: SkMel28
Experiment: cell count relative to DMSO control; melanoma cells; higher = more viable cells
Details: library dose: low library concentration; 72 h
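Also: cell number obtained by counting DAPI-stained nuclei in high-throughput microscope images with image analysis software, screen run in 1,536-well plates.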

SMILES | cell count [%]
CC(C)C[C@H](NC(=O)[C@H](Cc1ccccc1)NC(=O)c1cnccn1)B(O)O [Bortezomib] + O=c1cc(-c2cccc3c2Sc2ccccc2S3)oc(N2CCOCC2)c1 [KU55933] (first compound 0.001 µM, partner dose 1 µM) | 84.4
COc1ccc(C2=N[C@@H](c3ccc(Cl)cc3)[C@@H](c3ccc(Cl)cc3)N2C(=O)N2CCNC(=O)C2)c(OC(C)C)c1 [Nutlin-3] + CN(C)S(=O)(=O)c1ccc2c(c1)/C(=C/c1cc3c([nH]1)CCCC3)C(=O)N2 [SU6656] (first compound 0.1 µM, partner dose 0.4 µM) | 94.5
Cc1cc(Nc2cc(N3CCN(C)CC3)nc(/C=C/c3ccccc3)n2)n[nH]1 + CCc1ccc(CCOc2ccc(CC3SC(=O)NC3=O)cc2)nc1 [pioglitazone] (first compound 0.04 µM, partner dose 2 µM) | 87.4
Cn1c(=O)n(-c2ccc(C(C)(C)C#N)cc2)c2c3cc(-c4cnc5ccccc5c4)ccc3ncc21 + O=C(Nc1ccccc1)c1cc([N+](=O)[O-])ccc1Cl [GW9662] (first compound 0.004 µM, partner dose 2 µM) | 92
Cc1cn(-c2cc(NC(=O)c3ccc(C)c(Nc4nccc(-c5cccnc5)n4)c3)cc(C(F)(F)F)c2)cn1 [nilotinib] + COc1cc2c(Oc3ccc4[nH]c(C)cc4c3F)ncnc2cc1OCCCN1CCCC1 [cediranib] (first compound 0.2 µM, partner dose 0.4 µM) | 98.5
Cc1cc(Nc2cc(N3CCN(C)CC3)nc(/C=C/c3ccccc3)n2)n[nH]1 + OCCn1cc(-c2cnc3nnn(Cc4ccc5ncccc5c4)c3n2)cn1 [PF04217903] (first compound 0.04 µM, partner dose 1 µM) | 87.3
CC(C)C[C@H](NC(=O)[C@H](Cc1ccccc1)NC(=O)c1cnccn1)B(O)O [Bortezomib] + NCC(=O)Nc1ccc(-n2nc(C(F)(F)F)cc2-c2ccc3c(ccc4ccccc43)c2)cc1 [OSU03012] (first compound 0.001 µM, partner dose 1 µM) | 69.9
Cn1c(=O)n(-c2ccc(C(C)(C)C#N)cc2)c2c3cc(-c4cnc5ccccc5c4)ccc3ncc21 + COc1cc(Nc2ncc(F)c(Nc3ccc4c(n3)NC(=O)C(C)(C)O4)n2)cc(OC)c1OC [Tamatinib] (first compound 0.004 µM, partner dose 0.4 µM) | 47.9
COc1ccc(C2=N[C@@H](c3ccc(Cl)cc3)[C@@H](c3ccc(Cl)cc3)N2C(=O)N2CCNC(=O)C2)c(OC(C)C)c1 [Nutlin-3] + CCN(CC)CCCCNc1ncc2cc(-c3cc(OC)cc(OC)c3)c(NC(=O)NC(C)(C)C)nc2n1 [PD173074] (first compound 0.1 µM, partner dose 0.1 µM) | 78.2
CC(C)C[C@H](NC(=O)[C@H](Cc1ccccc1)NC(=O)c1cnccn1)B(O)O [Bortezomib] + CN(C)S(=O)(=O)c1ccc2c(c1)/C(=C/c1cc3c([nH]1)CCCC3)C(=O)N2 [SU6656] (first compound 0.001 µM, partner dose 0.4 µM) | 86.6
Cc1cn(-c2cc(NC(=O)c3ccc(C)c(Nc4nccc(-c5cccnc5)n4)c3)cc(C(F)(F)F)c2)cn1 [nilotinib] + COc1ccc(COc2ccc(Cc3cnc(N)nc3N)cc2OC)cc1 [GW2580] (first compound 0.2 µM, partner dose 1 µM) | 111
CC(C)C[C@H](NC(=O)[C@H](Cc1ccccc1)NC(=O)c1cnccn1)B(O)O [Bortezomib] + Oc1cc(-c2nc(-c3ccccc3)[nH]c2-c2ccncc2)ccc1Cl [L779450] (first compound 0.001 µM, partner dose 0.2 µM) | 68.6
CC(C)C[C@H](NC(=O)[C@H](Cc1ccccc1)NC(=O)c1cnccn1)B(O)O [Bortezomib] + Cc1cc(N2CCOCC2)cc2[nH]c(-c3c(NC[C@@H](O)c4cccc(Cl)c4)cc[nH]c3=O)nc12 [BMS536924] (first compound 0.001 µM, partner dose 0.2 µM) | 76.7
Cn1c(=O)n(-c2ccc(C(C)(C)C#N)cc2)c2c3cc(-c4cnc5ccccc5c4)ccc3ncc21 + COc1cc2c(Oc3ccc4[nH]c(C)cc4c3F)ncnc2cc1OCCCN1CCCC1 [cediranib] (first compound 0.004 µM, partner dose 0.4 µM) | 82.3
Cc1cn(-c2cc(NC(=O)c3ccc(C)c(Nc4nccc(-c5cccnc5)n4)c3)cc(C(F)(F)F)c2)cn1 [nilotinib] + O=C1NC(=O)/C(=C/c2ccc(-c3ccc(F)cc3O)o2)S1 [AS252424] (first compound 0.2 µM, partner dose 1 µM) | 106
CC(C)C[C@H](NC(=O)[C@H](Cc1ccccc1)NC(=O)c1cnccn1)B(O)O [Bortezomib] + Cn1cc(/C=C2\C(=O)Nc3cccnc32)c2ccccc21 [GW441756] (first compound 0.001 µM, partner dose 0.4 µM) | 66.9
Cc1cc(Nc2cc(N3CCN(C)CC3)nc(/C=C/c3ccccc3)n2)n[nH]1 + COc1ccc(COc2ccc(Cc3cnc(N)nc3N)cc2OC)cc1 [GW2580] (first compound 0.04 µM, partner dose 1 µM) | 84.4
Cc1cn(-c2cc(NC(=O)c3ccc(C)c(Nc4nccc(-c5cccnc5)n4)c3)cc(C(F)(F)F)c2)cn1 [nilotinib] + COc1cc(N2CCC(N3CCN(C)CC3)CC2)ccc1Nc1ncc(Cl)c(Nc2ccccc2S(=O)(=O)C(C)C)n1 [NVP-TAE684] (first compound 0.2 µM, partner dose 0.08 µM) | 88.2
CC(C)C[C@H](NC(=O)[C@H](Cc1ccccc1)NC(=O)c1cnccn1)B(O)O [Bortezomib] + O=C1NC(=O)/C(=C/c2ccc(-c3ccc(F)cc3O)o2)S1 [AS252424] (first compound 0.001 µM, partner dose 1 µM) | 86.3
Cc1cc(Nc2cc(N3CCN(C)CC3)nc(/C=C/c3ccccc3)n2)n[nH]1 + CCCCCCCCCCCC1=C(O)C(=O)C=C(O)C1=O [Embelin] (first compound 0.04 µM, partner dose 1.2 µM) | 77.3
Cn1c(=O)n(-c2ccc(C(C)(C)C#N)cc2)c2c3cc(-c4cnc5ccccc5c4)ccc3ncc21 + Cc1cc(N2CCOCC2)cc2[nH]c(-c3c(NC[C@@H](O)c4cccc(Cl)c4)cc[nH]c3=O)nc12 [BMS536924] (first compound 0.004 µM, partner dose 0.2 µM) | 77.9
Cc1cc(Nc2cc(N3CCN(C)CC3)nc(/C=C/c3ccccc3)n2)n[nH]1 + C=CCn1c(=O)c2cnc(Nc3ccc(N4CCN(C)CC4)cc3)nc2n1-c1cccc(C(C)(C)O)n1 [MK1775] (first compound 0.04 µM, partner dose 0.02 µM) | 74.9
CC(C)C[C@H](NC(=O)[C@H](Cc1ccccc1)NC(=O)c1cnccn1)B(O)O [Bortezomib] + COC(=O)c1sccc1S(=O)(=O)Nc1ccc(Nc2ccccc2)cc1OC [GSK0660] (first compound 0.001 µM, partner dose 1 µM) | 85.6
Cc1cn(-c2cc(NC(=O)c3ccc(C)c(Nc4nccc(-c5cccnc5)n4)c3)cc(C(F)(F)F)c2)cn1 [nilotinib] + O=C(Nc1ccccc1)c1cc([N+](=O)[O-])ccc1Cl [GW9662] (first compound 0.2 µM, partner dose 2 µM) | 96.5
CC(C)C[C@H](NC(=O)[C@H](Cc1ccccc1)NC(=O)c1cnccn1)B(O)O [Bortezomib] + C=CCn1c(=O)c2cnc(Nc3ccc(N4CCN(C)CC4)cc3)nc2n1-c1cccc(C(C)(C)O)n1 [MK1775] (first compound 0.001 µM, partner dose 0.02 µM) | 79.5
Cc1cn(-c2cc(NC(=O)c3ccc(C)c(Nc4nccc(-c5cccnc5)n4)c3)cc(C(F)(F)F)c2)cn1 [nilotinib] + CN(C)S(=O)(=O)c1ccc2c(c1)/C(=C/c1cc3c([nH]1)CCCC3)C(=O)N2 [SU6656] (first compound 0.2 µM, partner dose 0.4 µM) | 89.2
Cc1cc(Nc2cc(N3CCN(C)CC3)nc(/C=C/c3ccccc3)n2)n[nH]1 + CC1(C)NC(=O)N(c2ccc([N+](=O)[O-])c(C(F)(F)F)c2)C1=O [nilutamide] (first compound 0.04 µM, partner dose 1 µM) | 90.8
Cn1c(=O)n(-c2ccc(C(C)(C)C#N)cc2)c2c3cc(-c4cnc5ccccc5c4)ccc3ncc21 + O=C(O)c1ccc(-c2c[nH]c3ncc(-c4ccccc4)cc23)cc1C1CCCC1 [GSK650394] (first compound 0.004 µM, partner dose 0.16 µM) | 93.9
Cc1cn(-c2cc(NC(=O)c3ccc(C)c(Nc4nccc(-c5cccnc5)n4)c3)cc(C(F)(F)F)c2)cn1 [nilotinib] + Cc1ccc(NC(=O)c2cccc(N(C)C)c2)cc1NC(=O)c1ccc(O)cc1 [ZM336372] (first compound 0.2 µM, partner dose 2 µM) | 82.5
Cc1cc(Nc2cc(N3CCN(C)CC3)nc(/C=C/c3ccccc3)n2)n[nH]1 + O=C(O)C(=O)Nc1sc2c(c1C(=O)O)CCNC2 [TCS401] (first compound 0.04 µM, partner dose 1.66667 µM) | 92.7
